# Measured values taken from the supplement of paper PMC9446081.
# About 220 (0.56%) of roughly 39,000 compounds showed activity. The list shows a part of the results.
# System: Escherichia coli K-12 BW25113
# Assay: relative growth (OD600 normalised to plate interquartile mean) (fraction); higher = less growth inhibition, active = 0.2 or less
# Details: 50 µM; LB; incubation time: overnight (16-24 h)
# 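Also: static incubation at 37 °C against the wild-type strain, values averaged over two biological replicates.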
row,SMILES,relative growth
1,COc1ccc(S(=O)(=O)N2C[C@@H](O)COC[C@@H]3O[C@H](CC(=O)N[C@H]4CCN(Cc5ccccc5)C4)CC[C@H]32)cc1,inactive: 0.956
2,C[C@H]1CCCCO[C@@H](CN(C)C(=O)Nc2ccc(F)cc2)[C@@H](C)CN([C@@H](C)CO)C(=O)c2cc(NC(=O)Nc3ccccc3)ccc2O1,inactive: 1.01
3,C[C@@H]1CN([C@@H](C)CO)C(=O)Cc2cc(NC(=O)C3CCCCC3)ccc2O[C@H]1CN(C)Cc1ccc(C(=O)Nc2ccccc2N)cc1,inactive: 1.01
4,COc1ccc(S(=O)(=O)N2CC(NC(=O)Cn3ccc(=O)n(C)c3=O)C2)cc1,inactive: 0.997
5,O=C1OCCN(c2ccccc2)C1=O,inactive: 1
6,COc1ccc([Si](C)(C)[C@H]2[C@H](CC(=O)N3Cc4ccccc4C[C@H]3CO)O[C@@]3(C(=O)N(Cc4cccc(N5CCC5=O)c4)c4ccccc43)[C@@H]2C)cc1,inactive: 1.03
7,O=C(C[C@@H]1CC[C@@H](NC(=O)CN2CCOCC2)[C@H](CO)O1)NC1CCC1,inactive: 0.996
8,C[C@H](O)C#Cc1ccc2c(c1)O[C@@H](CN(C)C(=O)c1ccncc1)[C@H](C)CN([C@H](C)CO)S2(=O)=O,inactive: 0.982
9,CNC(=O)CN1CCN2CCN(CC(=O)NC)CC(=O)[O][Gd]([O]C(=O)C2)[O]C(=O)C1,inactive: 0.956
10,C[C@H](CO)N1C[C@H](C)[C@H](CN(C)C(=O)Nc2ccccc2)Oc2c(NC(=O)CCCCCC(=O)Nc3ccccc3N)cccc2C1=O,inactive: 0.992
11,COc1ccc2c(c1)c(CC(=O)OCC(=O)O)c(C)n2C(=O)c1ccc(Cl)cc1,inactive: 0.954
12,COC(=O)c1c2oc(c1C(=O)OC)C(=O)N(C)Cc1cn(nn1)C[C@@H](Cc1ccccc1)NC(=O)N[C@H](COC(=O)NCCCCCC(=O)NO)CC2,inactive: 1.01
13,O=C(C[C@H]1C[C@@H]2c3cc(NS(=O)(=O)c4ccc(F)cc4)ccc3O[C@@H]2[C@@H](CO)O1)NCc1ccccc1F,inactive: 0.99
14,CN(C)c1cncc(C(=O)O)c1,inactive: 0.97
15,C[C@H]1CN([C@@H](C)CO)C(=O)c2cccc(NC(=O)c3nc4ccccc4s3)c2O[C@H]1CN(C)Cc1ccc(-c2ccccc2)cc1,inactive: 0.996
16,Cl.NC(COP(=O)(O)O)C(=O)O (centres undefined),inactive: 1.08
17,CC1C(=O)OC2CC34C5CC(C(C)(C)C)C36C(OC(=O)C6O)OC4(C(=O)O5)C21O (centres undefined),inactive: 1.09
18,C[C@@H]1CN([C@H](C)CO)C(=O)c2cccc(NS(C)(=O)=O)c2O[C@H]1CN(C)C(=O)Nc1ccc(F)cc1,inactive: 1.01
19,C[C@H]1CN([C@@H](C)CO)C(=O)c2cccc(NC(=O)Nc3ccccc3)c2O[C@H]1CN(C)Cc1ccc(Cl)c(Cl)c1,inactive: 0.994
20,Cc1nc2[nH]c(C)c(CCC(=O)O)c(=O)n2n1,inactive: 0.998

row,SMILES,relative growth
1,C[C@H]1CN([C@@H](C)CO)C(=O)c2cc(NC(=O)Cc3cn(C)c4ccccc34)ccc2O[C@H]1CN(C)Cc1ccc(-c2ccccc2)cc1,inactive: 1.02
2,COc1ccc(-n2c(C)cc(CN)c2C)cc1,inactive: 0.995
3,O=C(C[C@H]1C=C[C@@H](NC(=O)Nc2cc(F)ccc2F)[C@H](CO)O1)NCCCN1CCOCC1,inactive: 0.931
4,CO[C@@H](CN(C)C(=O)C1CCOCC1)[C@@H](C)CN(C(=O)Nc1ccc(C(F)(F)F)cc1)[C@@H](C)CO,inactive: 0.889
5,CN(C)CCCNC(=O)C[C@@H]1CC[C@H]2[C@@H](COc3ccc(NS(C)(=O)=O)cc3C(=O)N2C)O1,inactive: 0.977
6,COc1cccc(S(=O)(=O)Nc2ccc3c(c2)[C@H]2C[C@H](CC(=O)NCCc4ccccc4)O[C@@H](CO)[C@H]2O3)c1,inactive: 1.02
7,C[C@H](CO)N1C[C@H](C)[C@H](CN(C)C(=O)Cc2ccccn2)Oc2cc(C#C[C@@H](C)O)ccc2S1(=O)=O,inactive: 1
8,CO[C@@H]1CN(C)C(=O)c2ccc(NC(=O)NC(C)C)cc2OC[C@@H](C)N(Cc2ccc(-c3ccccn3)cc2)C[C@@H]1C,inactive: 1.01
9,C[C@H](CO)N1C[C@H](C)[C@H](CN(C)CC2CC2)Oc2ccc(NC(=O)Cn3cnnn3)cc2C1=O,inactive: 1.01
10,C[C@H](NC(=O)C[C@@H]1C[C@H]2c3cc(NC(=O)Nc4ccc(C(F)(F)F)cc4)ccc3O[C@H]2[C@@H](CO)O1)c1ccccc1,inactive: 1.01
11,O=C1CN(S(=O)(=O)Cc2ccccc2)C[C@H]2[C@H](c3ccc(C#Cc4ccc(F)cc4)cc3)[C@H](CO)N12,inactive: 1.01
12,Cc1noc(C)c1NC(=O)Nc1ccc2c(c1)CC(=O)N([C@H](C)CO)C[C@H](C)[C@H](CN(C)Cc1ccc(C(=O)Nc3ccccc3N)cc1)O2,inactive: 1.01
13,Cc1noc(C)c1S(=O)(=O)N(C)C[C@H]1OCCCC[C@@H](C)Oc2ccc(NC(=O)Nc3ccc(C(F)(F)F)cc3)cc2C(=O)N([C@@H](C)CO)C[C@@H]1C,inactive: 1.04
14,CC(C)CCCC(C)C1CCC2C3CC=C4CC(O)CCC4(C)C3CCC12C (centres undefined),inactive: 1.02
15,COc1ccc(S(=O)(=O)Nc2ccc3c(c2)C(=O)N([C@@H](C)CO)C[C@@H](C)[C@@H](CN(C)Cc2ccncc2)O3)cc1,inactive: 0.983
16,N#C[C@@H]1N[C@@H](CO)[C@@H]1c1ccccc1,inactive: 0.981
17,CC(C)NC(=O)N(C)C[C@@H]1OCCCC[C@H](C)Oc2ccc(NS(C)(=O)=O)cc2C(=O)N([C@@H](C)CO)C[C@@H]1C,inactive: 0.992
18,CC(C)C[C@H]1NC(=O)[C@@H](CCCN)NC(=O)[C@H](C(C)C)NC(=O)[C@H]2CCCN2C(=O)[C@@H](Cc2ccccc2)NC(=O)[C@@H](CC(C)C)NC(=O)[C@@H](CCCN)NC(=O)[C@H](C(C)C)NC(=O)[C@H]2CCCN2C(=O)[C@@H](Cc2ccccc2)NC1=O,inactive: 1.01
19,N[C@H]1CCCN(c2ncccn2)C1,inactive: 1.04
20,C[C@H]1CN([C@@H](C)CO)S(=O)(=O)c2ccc(C#Cc3ccc(F)cc3)cc2O[C@H]1CN(C)C(=O)c1ccccn1,inactive: 1

row,SMILES,relative growth
1,CC(=O)N(C)C[C@H]1Oc2cc(C#CCN(C)C)ccc2S(=O)(=O)N([C@@H](C)CO)C[C@@H]1C,inactive: 1
2,C=CCOC(=O)[C@H]1[C@@H]2C(=O)O[C@@H](c3ccccc3)[C@@H](c3ccccc3)N2[C@@H](c2cccc(OCCOC(=O)NCCCCCC(=O)NO)c2)[C@@]12C(=O)Nc1ccc(I)cc12,inactive: 0.988
3,Cc1ccc(S(=O)(=O)Nc2ccc3c(c2)C(=O)N([C@@H](C)CO)C[C@@H](C)[C@@H](CN(C)C(=O)Nc2ccc4c(c2)OCO4)OCCCC[C@@H](C)O3)cc1,inactive: 1.04
4,Cc1noc(C)c1S(=O)(=O)Nc1ccc2c(c1)C(=O)N([C@H](C)CO)C[C@@H](C)[C@@H](CN(C)C(=O)Nc1cccc3ccccc13)OCCCC[C@@H](C)O2,inactive: 1.01
5,C[C@H]1CCCCO[C@H](CN(C)C(=O)C2CCCCC2)[C@@H](C)CN([C@@H](C)CO)C(=O)c2cc(NC(=O)c3ccccc3)ccc2O1,inactive: 0.978
6,C[C@@H]1CCCCO[C@H](CN(C)Cc2ccncc2)[C@H](C)CN([C@H](C)CO)C(=O)c2cc(NC(=O)C3CCCCC3)ccc2O1,inactive: 0.986
7,C[C@H]1CN([C@@H](C)CO)C(=O)c2cccc(NC(=O)CCCCCC(=O)Nc3ccccc3N)c2O[C@@H]1CN(C)C(=O)Nc1ccc(C(F)(F)F)cc1,inactive: 0.953
8,COc1cccc(S(=O)(=O)N(C)C[C@@H]2Oc3cc(C#CCN(C)C)ccc3S(=O)(=O)N([C@@H](C)CO)C[C@@H]2C)c1,inactive: 1.02
9,CC(C)NC(=O)Nc1ccc2c(c1)C(=O)N([C@@H](C)CO)C[C@H](C)[C@@H](CN(C)S(=O)(=O)c1cccs1)O2,inactive: 1.01
10,O=C1O[C@H](c2ccccc2)[C@H](c2ccccc2)N2[C@H]1[C@@H](C(=O)O)[C@]1(C(=O)Nc3ccc(Cl)cc31)[C@H]2c1ccc(F)cc1,inactive: 0.771
11,COc1ccccc1CNC(=O)C[C@@H]1CC[C@H]2[C@@H](COC[C@@H](O)CN2C(=O)Nc2ccc(F)cc2)O1,inactive: 0.966
12,CC=Cc1ccc2n(c1=O)C[C@H]1[C@H](CO)[C@@H](C(=O)NCCc3cn(C)cn3)[C@@H]2N1C(=O)C1CC1,inactive: 1
13,C[C@@H]1CCCCO[C@H](CN(C)C(=O)Nc2cccc3ccccc23)[C@@H](C)CN([C@H](C)CO)C(=O)c2cc(NC(=O)Nc3ccc4c(c3)OCO4)ccc2O1,inactive: 1.02
14,C[C@@H]1CCCCO[C@H](CN(C)C(=O)Nc2ccc(F)cc2)[C@@H](C)CN([C@H](C)CO)C(=O)c2cc(NC(=O)CCC(F)(F)F)ccc2O1,inactive: 1
15,O=C(C[C@@H]1CC[C@H](NC(=O)CN2CCOCC2)[C@H](CO)O1)NCCc1ccncc1,inactive: 1.02
16,COCC(=O)N1CC[C@]2(CC1)CN([C@@H](CO)c1c2c2ccc(cc2n1C)OC)C(=O)Nc1ccccc1F,inactive: 1.04
17,C[C@H](CO)N1C[C@H](C)[C@@H](CN(C)C(=O)Nc2ccc(C(F)(F)F)cc2)Oc2c(NC(=O)Nc3ccccc3)cccc2C1=O,inactive: 0.943
18,O=C(C[C@@H]1C=C[C@@H](NC(=O)c2cccc(F)c2)[C@H](CO)O1)NCCN1CCCC1,inactive: 1.02
19,Cc1noc(C)c1S(=O)(=O)Nc1cccc2c1O[C@H](CN(C)S(=O)(=O)c1ccc(F)cc1)[C@@H](C)CN([C@H](C)CO)C2=O,inactive: 0.984
